Several values for one entry are separate records, joined by “and”; a condition that tells them apart may be missing. Equal values may be shown once.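 Each compound was tested at five concentrations against cells in 96-well plates for 48 hours. The concentration for 50% growth inhibition is given as GI50. Definition used: TGI = concentration required for complete inhibition of growth.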 Bridge positions count the residues as written; N and C are the ends. Square brackets hold non-standard residues; d marks the D form. Peptide text beside a SMILES is read from it. I, II: the chains in the order shown. * marks the point of attachment. Quinoxaline2carbonyl = O=C(c1cnc2ccccc2n1)*; NMeV = CN[CH](C(=O)O)C(C)C; NMeC = CN[CH](CS)C(=O)O

What is called TGI is the concentration giving total growth inhibition. The low end stands for greater sensitivity of the cells, the high end for lower sensitivity of the cells. One may read the GI50 as the concentration giving 50% growth inhibition.

The assay deals with NCI-H322M lung. The experiment in a line: DTP human tumour cell line panel, 48 h.
In turn, `COc1ccc(N=C2C(=Nc3ccc(OC)cc3)N(c3ccccc3)C(=S)N2N=C=C2Sc3ccccc3N2C)cc1` came in with a TGI greater than 100 µM. With `N#Cc1ccc(N=Cc2c([O-])ccc3ccccc23)cc1.[C-]#[O+].[C-]#[O+].[Ir]`, the GI50 is 15.7 µM and the TGI was determined as 33 µM. With `Cc1cc2c(c(C(=O)O)c1C)-c1cccc(F)c1C2=O`, the TGI is greater than 100 µM. The same measure, in the same setting: next, `CC1=NN(C(=O)CSc2nc3ccc(I)cc3c(=O)n2Cc2ccccc2)C(=O)C1`: greater than 100 µM; `O=C(O)/C(Cl)=C(\Cl)C(=O)Nc1ccc(Cl)c(Cl)c1Cl`: 49.4 µM. The compound `CCC1(COC(NC(=O)c2ccccc2)(C(F)(F)F)C(F)(F)F)COC1` came in with a TGI greater than 100 µM.

As to `Cc1n[nH]c(=O)n1/N=C/c1ccc([N+](=O)[O-])o1`, the TGI is greater than 72.7 µM.

`N#Cc1c(N)[nH]c2ccc(Sc3ccccc3)cc12`: the TGI was 16.8 µM. Compound `CC(C)(CC(O)C#N)/[N+]([O-])=[N+](\[O-])C(C)(C)CC(O)C#N` (configuration not stated) displayed a TGI greater than 100 µM. Still for that read-out and setting: with `COc1ccc(C=O)c(NC(=O)C(C)C)c1` the figure was greater than 100 µM. With `COc1ccc2cc(-c3c(-c4ccncc4)nc(-c4ccc(S(C)=O)cc4)n3C)ccc2c1` (configuration not stated), the GI50 was greater than 25 µM and the TGI was greater than 25 µM. For `C=CCOC(=O)C1C2OC3(C(C(=O)OC)=C2C(=O)OC)c2ccccc2CCC13` (configuration not stated), the TGI was greater than 10 µM. Take `Cc1cc(NCCCCCCCNc2cc(C)nc3cc([N+](=O)[O-])ccc23)c2ccc([N+](=O)[O-])cc2n1`: the concentration for total growth inhibition (TGI) amounted to 25.9 µM. `CC1(C)C2CCC13CS(=O)(=O)N1O[C@]13C(=O)O2` (some centres not stated) yielded a TGI greater than 100 µM. On to `[N-]=[N+]=C1C(=O)C2CC3CC(C2)CC1C3`, for which the TGI was greater than 100 µM.

As to `COC1O[C@@H]2C[C@H]3C(C)(C)CCC[C@]3(C)C3=CCCC1[C@@]32C` (some centres not stated), the GI50 is greater than 100 µM and the TGI is greater than 100 µM. `Cc1ccc(S(=O)OC2C3CC4CC(C3)CC2C4)cc1` (configuration not stated): the concentration for total growth inhibition (TGI) is greater than 100 µM. The compound `CNS(=O)(=O)NNS(=O)(=O)c1ccc(Cl)cc1` yielded a TGI greater than 100 µM. As for `Cc1nc(-c2ccc(N=Cc3ccc(N(CCOS(C)(=O)=O)CCOS(C)(=O)=O)cc3C)cc2)cs1`, the TGI was greater than 100 µM.

In turn, `COC(=O)C(C)(C)N=CN(C)C` displayed a TGI greater than 100 µM.

As for `CCN(CCO)CC(C)Nc1ccc([N+](=O)[O-])c2sc3ccccc3c(=O)c12` (configuration not stated), the GI50 was 1.12 µM and the TGI turned out to be 3.54 µM. On the same counts, the results for `C#CCOc1cccc(Nc2ncnc3c(NC(=O)CCl)cccc23)c1` are 16.7 µM and 35.4 µM. `CCN(Cc1ccc(Cl)s1)c1ccc(CO)c(Cl)c1`: the GI50 is 6.05 µM and the total growth inhibition concentration (TGI) was 35.1 µM.

Regarding `Cc1c(C2=C(c3cn(C)c4ccccc34)C(=O)NC2=O)c2ccccc2n1C`, the GI50 is 17.7 µM and the TGI was greater than 25 µM. With `Cc1ccc(C2=Nc3ccccc3SC(c3cccc([N+](=O)[O-])c3)C2)cc1` (configuration not stated), the TGI is greater than 100 µM. For `COc1cc(-c2cc(-c3cc([N+](=O)[O-])c(/C=N/NC(=O)c4ccncc4)o3)ccc2OC)ccc1C`, the TGI was greater than 100 µM. Take `CC(=O)c1c(C(F)(F)F)n([O-])c2ccc(C)cc2[n+]1=O`: the GI50 was 6.61 µM and the TGI is greater than 73.5 µM. On to `CN(CC(N)=O)C(=O)N(CCCl)N=O`, for which the TGI is greater than 100 µM. Still for that read-out and setting: next, `CCCCCCCCCCCCCP(=O)(O)NCC(N)=O`: greater than 100 µM. Take `CC(C)(C)c1ccc(C(=O)Nc2sc3c(c2C(N)=O)CCC(=O)C3)cc1`: the GI50 was 2.77 µM and the concentration for total growth inhibition (TGI) turned out to be 16.8 µM.

For the compound `COC(=O)CC1NC(=O)C1C1(C)OCCO1` (configuration not stated), the TGI was greater than 100 µM. `COC12c3ccccc3-c3ccccc3C1[C@H]1C(=O)OC(=O)[C@H]12` (some centres not stated) had a TGI greater than 10 µM. `CCCc1ccc(NCc2cc(OC)c(OC)c(OC)c2)cc1` returned a concentration for total growth inhibition (TGI) greater than 100 µM. For `O=C(Nc1cccc(Nc2ncc(Br)c(NCCc3cnc[nH]3)n2)c1)N1CCCC1`, the GI50 was 6.63 µM and the TGI turned out to be 34.8 µM. With `Cc1cc(N(CCC#N)CCC#N)ccc1/C=C1/N=C(c2ccccc2)N(N)C1=O`, the TGI is greater than 100 µM. The same measure, in the same setting: with `CN(C)CCC(/C=C/c1ccccc1)=N\Nc1ccc(Cl)cc1Cl` the figure was 34.6 µM; with `CN(C)c1ccc(/C=C2\C=Cc3ccccc32)cc1`, greater than 100 µM. For `COc1ccc(C(=O)N2c3ccccc3Sc3ccccc32)c(OC)c1`, the GI50 was 0.501 µM and the TGI is greater than 100 µM. In turn, `COc1cc(C2C3=C(COC3=O)Oc3cc4c(cc32)OCO4)cc(OC)c1OC(C)=O` (configuration not stated) registered a TGI greater than 100 µM.

As to `O=c1[nH]cnc2c(C3NC(CO)C(O)C3O)c[nH]c12` (configuration not stated), the GI50 is greater than 100 µM and the TGI is greater than 100 µM. As for `O=C(Oc1cccnc1)c1ccsc1Nc1ccnc(C(F)(F)F)c1`, the GI50 was 11.5 µM and the TGI is 25.4 µM. Turning to `COc1cc([C@@H]2c3cc(O)c(OC)cc3C=C(C(N)=O)[C@H]2C(N)=O)ccc1O`, the TGI was greater than 100 µM. Consider `CCn1c2ccccc2c2cc(/C=C(/C#N)C(N)=O)ccc21`, for which the GI50 was 54.8 µM and the TGI is greater than 100 µM. For `CCN1C(=O)N(CC)C2C1NN=c1s/c(=C\c3ccccc3Br)c(=O)n12` (configuration not stated), the GI50 was 0.0544 µM and the TGI came to 22.7 µM.

`CC1OC(OC2C(OC(=O)[C@@H]3CC(C)(C)C[C@H]4C5=CC[C@@H]6[C@@]7(C)C[C@H](O)[C@H](OC8OC(CO)C(O)C(O)C8O)[C@@](C)(CO)[C@@H]7[C@H](O)C[C@@]6(C)[C@]5(C)CC[C@@]34C)OCC(O)C2O)C(O)C(O)C1O` (some centres not stated): the concentration for total growth inhibition (TGI) was greater than 7.5 µM. On to `C#CCOCC12C=CC(O1)C1C(=O)OCC12` (configuration not stated), for which the TGI is greater than 100 µM.

The compound `O=C1C[C@@H](c2ccccc2)O[C@@H](c2ccccc2)C1` displayed a TGI greater than 100 µM. Turning to `COc1cc(/C=C/[N+](=O)[O-])cc(Br)c1OC`, the GI50 was 13.5 µM and the TGI is 29.4 µM. In turn, `CCC(c1c[nH]c2ccc(Br)cc12)c1c[nH]c2ccc(Br)cc12` showed a TGI of 18.1 µM.

Regarding `C/C1=C\[C@@H](O)C(=O)/C=C/C=C\c2csc(n2)[C@@H](C)NC(=O)C[C@@]2(CC1)S(=O)SC(=O)[C@]2(C)O` (some centres not stated), the GI50 is 0.109 µM; the total growth inhibition concentration (TGI) was 0.596 µM and 2.51 µM. As to `C[C@@H]1O[C@@H](OC[C@H]2O[C@@H](OCCc3ccc(O)c(O)c3)[C@H](O)[C@@H](O)[C@@H]2OC(=O)/C=C/c2ccc(O)c(O)c2)[C@H](O)[C@H](O)[C@H]1O`, the GI50 is greater than 100 µM and the TGI is greater than 100 µM. The compound `CC(NC(C)(C)C)C(=O)c1cccc(Cl)c1` (configuration not stated) had a TGI greater than 100 µM. In the case of `COc1ccc2c(c1)OC1=C(C(=O)OC1)C2c1cc(OC)c2c(c1)OCO2` (configuration not stated), the GI50 is 0.0714 µM and the TGI is greater than 100 µM. As to `CN(C)CCCN1c2ccccc2CCc2ccc([N+](=O)[O-])cc21`, the TGI is 48.5 µM.

`COC(=O)c1cnn2c1n[n+]([O-])c1ccccc12` had a TGI greater than 100 µM. Consider `O[C@H]1[C@H](O)[C@@H](O)[C@@]2(O)C[C@@H](O)[C@@H]1N2`, for which the TGI was greater than 100 µM.

On to `Cc1cc(N(CCC#N)CCC#N)ccc1/C=C1N=C(/C=C\c2ccccc2)N(c2ccc(Cl)cc2)C\1=O`, for which the TGI is greater than 100 µM. In turn, `COC(CN1C=C(Sc2ccccc2)CC1)OC` registered a TGI greater than 100 µM. Same read-out and setting: with `c1ccc(CSCCc2ccncc2)cc1` the figure was greater than 100 µM. Turning to `CC(C)(C)CN1CCn2c(nc3c(N)nccc32)S1`, the GI50 was 8.07 µM and the concentration for total growth inhibition (TGI) is greater than 100 µM. `CC1OC(O[C@H]2/C=C/C=C/C=C/C=C/C=C/C=C/C=C/[C@H](C)[C@@H](O)[C@@H](C)[C@H](C)OC(=O)CC(O)CC(O)CCC(O)C(O)CC(O)C[C@]3(O)C[C@H](O)C(C(=O)O)C(C2)O3)C(O)[C@H](N)C1O` (some centres not stated): the GI50 was 2.92 µM and the TGI turned out to be 8.42 µM. `CC(C)CN=C(N)N=C(N)N` returned a total growth inhibition concentration (TGI) greater than 100 µM. As for `CC(C)C1=CC23CCC4C(C)(C(=O)O)CCCC4(C)C2CC1C1C(=O)N(c2ccc(C(=O)O)cc2)C(=O)C13` (configuration not stated), the TGI was greater than 100 µM. As to `c1ccc2c3c([nH]c2c1)C1CCCN1CC3` (configuration not stated), the TGI was greater than 10 µM. As for `Nc1ccc(-c2nc3ccccc3[nH]2)c2ccccc12`, the GI50 is 6.17 µM and the TGI amounted to 96.9 µM. Take `FC(F)(F)c1ccc2nc(Sc3ccccn3)cnc2c1`: the concentration for total growth inhibition (TGI) is greater than 100 µM. Regarding `COc1cc2c(c(OC)c1OC)-c1ccc(SC)c(=O)cc1[C@@H](NC1OC(CO)C(O)C(O)C1O)CC2` (some centres not stated), the GI50 is 0.0605 µM and the TGI was greater than 100 µM. Turning to `COc1nc(N)c(N=CC(OC(C)=O)C(OC(C)=O)C(COC(C)=O)OC(C)=O)c(=O)n1C` (configuration not stated), the TGI is greater than 100 µM. On to `CN(C)c1ccc(N=Nc2ccncc2)cc1`, for which the TGI was greater than 100 µM. Same read-out and setting: with `CC1(O)OC(=O)C2=C1CCC1C2CCC2(C)C(O)CCC12` (configuration not stated) the figure was greater than 100 µM.

As for `CCCCCCN(N)C(=O)CC#N`, the TGI is greater than 100 µM. `CN(CCCNC(=O)c1nn(-c2ccc(Cl)cc2Cl)c2c1Cc1ccccc1-2)CCCNC(=O)c1nn(-c2ccc(Cl)cc2Cl)c2c1Cc1ccccc1-2`: the TGI is 3.21 µM. As for `CN1CCN(Cc2ccc(NC(=O)c3[nH]ncc3Nc3ncnc4sc5c(c34)CCCC5)cc2)CC1`, the concentration for 50% growth inhibition (GI50) is 0.317 µM and the TGI is 1.45 µM. As for `Cc1cccc(NC(=O)c2sc3nc4c(cc3c2N)CN(Cc2ccccc2)CC4)c1C`, the GI50 is 0.3 µM and the TGI is greater than 50 µM. Turning to `CC1(C)OCC(C(O)C2OC(C)(C)OC2/C=N\O)O1` (configuration not stated), the total growth inhibition concentration (TGI) was greater than 100 µM. As for `COc1cccc(NC(=O)C(C#N)=C(SC)SC)c1`, the TGI was greater than 100 µM. `CCOC(=O)CSc1nnc(C(Sc2nc(-c3ccccc3)c(-c3ccccc3)[nH]2)C(C)C)n1-c1ccccc1` (configuration not stated) returned a TGI of 23.9 µM. Take `CC1NC(=O)C(NC(=O)c2cnc3ccccc3n2)COC(=O)C(C(C)C)N(C)C(=O)C2CSSCC(C(=O)N(C)C(C(C)C)C(=O)OCC(NC(=O)c3cnc4ccccc4n3)C(=O)NC(C)C(=O)N2C)N(C)C1=O` (configuration not stated) (I: Quinoxaline2carbonyl-SA[NMeC][NMeV] / II: Quinoxaline2carbonyl-SA[NMeC][NMeV]; ester I:1-II:C, I:C-II:1; disulfide I:3-II:3; configuration not given here): the TGI amounted to 1.67 µM. For the compound `O=C(O)COc1c(Cl)cc(Cl)c2cccnc12`, the concentration for total growth inhibition (TGI) is greater than 100 µM. `CSC(=S)N/N=C(\C)c1cccc(C)n1`: the TGI worked out at 75.1 µM.

Regarding `CCN(CC)Cc1sc2nc3ccccc3n2c1-c1ccc(OC)cc1`, the TGI is greater than 100 µM. With `Cc1ccc(NC(=O)c2ccccc2C(=O)O)cc1C`, the TGI is greater than 100 µM.

The values are drawn from PubChem BioAssay (NCI).
